Experimental data reported in PubChem BioAssay AID938 (National Center for Advancing Translational Sciences (NCATS), 2007).
Screen size: about 73,000 compounds; about 1,800 (2.5%) were called active. The inconclusive results got no clear call from the source; some entries with a clear call stand among them for comparison. The call rests on the fitted dose curve; in most records, active means well fitted activation curve with a large enough effect; inconclusive means small, poorly fitted or top-dose-only effect; inactive means no such curve, though single readings can be large or run the other way. Potencies of inconclusive entries are left out as doubtful fits.

assay: qHTS Assay for Agonists of the Thyroid Stimulating Hormone Receptor: Activators of Intracellular cAMP Concentrations in Parental HEK 293; conditions: parental HEK293 CNG cAMP sensor, membrane potential fluorescence; activation: at 57.1 µM (top of the series) unless noted; further: nearly all actives have a fitted effect of over 55% in size; on activation: % of control where 0% means no effect
How it was run: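 Parental HEK 293 cells stably expressing a cAMP-gated CNG channel were loaded with membrane potential dye containing 100 uM RO 20-1724 for 60 min. Compound added for 30 min; depolarization read as fluorescence intensity at 590 nm.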
Potency means the concentration at half of the fitted maximal effect; tags describe the fitted curve by direction and shape.

SMILES	Potency	activation
CCN(CC)CCC(=O)NC(C)(C)Cc1ccc(O)cc1	inconclusive [activator, single point]	
Cc1cccc(NC(=O)CCN2CCOCC2)c1	inconclusive [activator, single point]	
COc1ccc(-c2nnc(SCC(=O)Nc3sc4c(c3C#N)CCC4)n2CC2CCCO2)cc1 (stereo not given)	inconclusive [activator, single point]	
O=C1[C@@H]2[C@H]3[C@H](O)[C@H](O)C/C(=N/OC[C@@H](O)COCc4ccco4)[C@H]3CC[C@H]2C(=O)N1c1ccc(F)cc1F		inactive: -3.06% [at 11.4 µM]
CCOc1ccccc1N(CC(=O)O)S(=O)(=O)c1ccc(C)cc1	inconclusive [activator, single point]	
C=CCn1c(C)cc(C(=O)CSc2nc3ccccc3o2)c1C	active: 25.1 µM	
Cc1cc(C(=O)OCC(=O)Nc2cc(C(F)(F)F)ccc2N2CCOCC2)c(C)o1	inconclusive [activator, partial curve]	
Cc1ccc(OCc2nnc(SCC(=O)Nc3sc(C)c(C)c3C#N)n2C)cc1	inconclusive [activator, single point]	
CC(=O)N1CCC2(CCN(Cc3ccc(C#N)cc3)CC2)CC1	inconclusive [activator, partial curve]	
Cc1ccc(-c2ccc(=O)n(CCC(=O)NCCN3CCCCC3C)n2)cc1 (stereo not given)	inconclusive [activator, single point]	
COC(=O)Cc1[nH]nc2c1C(c1cccc(OC)c1OC)C(C#N)=C(N)O2 (stereo not given)	inconclusive [activator, single point]	
CN(C)c1ccc(NC(=O)Cn2cc3c(n2)CCCC3)cc1	inconclusive [activator, partial curve, poor fit]	
COc1ccc(C(=O)N2CCC3(CC2)CN(c2ccccn2)C3)cc1		inactive: 17.4%
CN(C)c1nc(N)nc(Nc2ccccc2C#N)n1		inactive: 18.9%
COc1ccc2oc(=O)c(C(=O)N3CCN(C45CC6CC(CC(C6)C4)C5)CC3)cc2c1		inactive: -0.571%
C=CCn1c(SCC(=O)c2ccc(CNC(C)=O)o2)nc2scc(C3CC3)c2c1=O		inactive: 15%
COc1ccc(OCCCC(=O)N2CCCc3ccccc32)cc1	active: 15.8 µM	
COc1nc(N)nc(NC23CC4CC(CC(C4)C2)C3)n1	inconclusive [activator, single point]	
OCCNc1nc2ccccc2n1-c1ccccc1	inconclusive [activator, full curve, poor fit]	
COc1ccc(-c2csc3nc(C)n(-n4cccc4)c(=O)c23)cc1OC		inactive: 11.6%
COc1cc(NCCC(=O)O)c2ncccc2c1		inactive: 1.93% [at 11.4 µM]
COC(=O)Cn1ncc2c(C)n(Cc3ccccc3)c(C)c2c1=O	inconclusive [activator, single point]	
CCN1C(=O)C2(Nc3ccccc3-c3nc4ccccc4n32)c2cc(OC)ccc21 (stereo not given)	active: 7.94 µM	
CC(=O)c1c(C)nc(-c2ccc(Cl)cc2)nc1N=CN(C)C		inactive: 24.5%
c1ccc(-c2cc3c(nn2)CCc2nonc2-3)cc1	inconclusive [activator, single point]	

SMILES	Potency	activation
CC(=O)C1=C(C)NC(SCC(=O)c2ccccc2)=C(C#N)C1CC(C)C (stereo not given)		inactive: 3.13%
CCOC(=O)c1c(C)n(CC(O)c2ccccc2)c2ccc(O)cc12 (stereo not given)		inactive: -2.38%
COCCCNC(=O)Cn1cc(C(C)=O)c2ccccc21	inconclusive [activator, single point]	
Cc1cccc(NC(=O)CC2SC(=NC3CCCCC3)NC2=O)c1 (stereo not given)		inactive: -3.22%
Cc1nc2cncnc2n(Cc2ccc(F)cc2)c1=O		inactive: 12.5%
O=C(Nc1cnn(C23CC4CC(CC(C4)C2)C3)c1)c1cnn2cccnc12		inactive: 8.18%
CCOc1ccccc1NC(=O)CSc1nccn1-c1ccccc1	inconclusive [activator, partial curve]	
CN=C(NC#N)Nc1ccc(C2=NNC(=O)C[C@@H]2C)cc1	inactive	
O=c1cnc2cnc(OCc3ccccc3)nc2n1CCc1ccccc1	inconclusive [activator, full curve]	
Cc1noc(C)c1-c1cncnc1-n1ccnc1		inactive: -0.921%
CN1c2ccccc2-c2nc3ccccc3n2C1c1ccncc1 (stereo not given)	inconclusive [activator, single point]	
CC(=O)Nc1nonc1-c1nc2ccccc2n1CC1CC1	inconclusive [activator, partial curve]	
CN1CCCC2(CCN(C(=O)c3cc(C(F)(F)F)cc(C(F)(F)F)c3)CC2)C1	inconclusive [activator, single point]	
CCCC1C(C(=O)OCC)=C(C)NC(C)=C1C(=O)OCC	inconclusive [activator, partial curve]	
Cc1cc(C)nc(-n2nc(C)cc2NC(=O)CN2CCc3ccccc3C2)n1	active: 25.1 µM	
Cc1cnc(CNc2nc(-c3ccc(C(=O)N(C)C)cc3)nc3ccccc23)cn1		inactive: -2.3%
COc1ccc(CNc2ccnc(-c3ccccc3CN(C)C)n2)c(OC)c1	inconclusive [activator, partial curve]	
Clc1ccc(Cl)c(OCCN2CCOCC2)c1	inconclusive [activator, full curve, poor fit]	
C=C(C)c1cccc(C(C)(C)NC(=O)Nc2ncccn2)c1	inconclusive [activator, single point]	
COc1cccc(-c2cncnc2NCc2ccc(OC)cc2OC)c1	active: 15.8 µM	
COC(=O)c1ccccc1NC(=O)c1ccccc1OC	active: 15.8 µM	
C=CCSc1nnc(-c2ccc(Cl)cc2Cl)o1		inactive: 10.9% [at 11.4 µM]
CCOC(=O)Cc1cc(=O)n(-c2nc3ccccc3s2)[nH]1		inactive: -14.8%
O=C(CSc1oc(-c2ccc(F)cc2)nc1S(=O)(=O)c1ccccc1)NCC1CCCO1 (stereo not given)	inconclusive [activator, single point]	
CCn1c(=O)c2ccccc2n2c(SCC(=O)NCc3cccs3)nnc12		inactive: -2.45%

SMILES	Potency	activation
O=C1c2ccccc2C(=O)N1c1ccc(Cc2ccc(N3C(=O)c4ccccc4C3=O)cc2)cc1		inactive: 0.125% [at 11.4 µM]
COc1cccc(C(c2sc3ncnn3c2O)N2CCc3ccccc3C2)c1 (stereo not given)	inconclusive [activator, single point]	
CN1CCc2c(sc3c2c(=O)n(-c2ccccc2)c2nnc(SCc4ccc(Cl)cc4)n32)C1		inactive: 7.39%
CCCN1C2CCCC1CC(NC(=O)c1cc(OC)c(OC)c(OC)c1)C2 (stereo not given)	inconclusive [activator, single point]	
Cc1cccc(OCCc2nnc(N)s2)c1C	inconclusive [activator, partial curve]	
COc1cccc(-c2cncnc2NCc2cccs2)c1	inconclusive [activator, partial curve]	
O=C(c1ccccc1)N(Cc1ccc(F)cc1)C1CCS(=O)(=O)C1 (stereo not given)		inactive: 11.3%
COc1ccccc1CNc1cc(-c2ccccc2CN(C)C)ncn1	inconclusive [activator, partial curve]	
Cc1cc(C)n(-c2ccc(C(=O)Nc3nc4ccccc4s3)cc2)n1	inconclusive [activator, single point]	
CCOc1nc2c(c(=O)n(C)c(=O)n2C)n1Cc1ccccc1Cl	inconclusive [activator, single point]	
O=C(/C=C\Nc1cccc(F)c1)c1ccc2c(c1)OCO2		inactive: 23.6% [at 11.4 µM]
O=c1cnc2cnc(Oc3ccccc3)nc2n1CCc1ccccc1	active: 1.58 µM	
CC(=O)N1CCc2cc(S(=O)(=O)NC(C(=O)NC3CCCc4ccccc43)C(C)C)ccc21 (stereo not given)	inconclusive [activator, single point]	
CCN(CC)S(=O)(=O)c1ccc(NC2c3ccccc3C(=O)N2Cc2ccc3c(c2)OCO3)cc1 (stereo not given)	inconclusive [activator, partial curve]	
CCC(C)Sc1nc2c(c(=O)n1C)SC(C)C2 (stereo not given)	inconclusive [activator, single point]	
Cn1ccnc1SCC(=O)NC12CC3CC(CC(C3)C1)C2	inconclusive [activator, single point]	
O=C(c1ccc(NC(=O)C2(c3ccccc3)CCOCC2)cc1)N1CCOCC1	inconclusive [activator, single point]	
COc1ccc(Br)cc1CNC(=O)C1CCN(S(=O)(=O)N2CCCC2)CC1		inactive: -2.11%
CC1(C)Cc2ccccc2-c2nnc(SCC(=O)Nc3ccc4c(c3)OCO4)n21	inconclusive [activator, partial curve]	
Cc1ccc(N(CC(=O)NCC2CCCO2)S(C)(=O)=O)cc1Cl (stereo not given)	inconclusive [activator, full curve, poor fit]	
CC(=O)N(O)[C@@H]1c2cc(C#N)ccc2OC(C)(C)[C@H]1O		inactive: -3.03%
COCCn1c(C(=O)N(C)C)cc2c1C[C@H]1CN(C(=O)c3ccccc3)[C@@](Cc3ccc(F)cc3)(C(=O)OC)[C@@H]21	active: 15.8 µM	
CC(C)C(=O)NC(=O)C1CCCN1C(=O)/C=C/c1ccccc1 (stereo not given)		inactive: 6.17% [at 11.4 µM]
COc1cc2nc(N(C)CCCNC(=O)[C@@H]3CCCO3)nc(N)c2cc1OC		inactive: 1.78% [at 25.6 µM]
CCCCOCCCn1c(-c2ccco2)nc2nc3ccccc3nc21		inactive: 17.1%
